Results published in the supplement of paper PMC8728848.
Some of the results follow.

Columns and labels:
Test in all cases: glycan array binding signal (z-score within array); higher = stronger binding
Details in all cases: glycan notation: IUPAC condensed, linker removed
[1] = molecular target: Gal(b1-4)GlcNAc(b1-3)Gal(b1-3)GalNAc
Summary of the method: (§1)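 The Consortium for Functional Glycomics database supplied 3228 glycan arrays, of which those lacking an available protein sequence were dropped. The binding signal, a within-array Z-score, was averaged across arrays of the same protein sequence and across linkers. Negative scores can be read as non-binding.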

[2] = molecular target: Gal(b1-4)GlcNAc(b1-3)Gal(b1-3)GlcNAc
Summary of the method: as §1

[3] = molecular target: Gal(b1-4)GlcNAc(b1-3)Gal(b1-4)Glc
Summary of the method: as §1

[4] = molecular target: Gal(b1-4)GlcNAc(b1-3)Gal(b1-4)GlcNAc
Summary of the method: as §1

[5] = molecular target: Gal(b1-4)GlcNAc(b1-3)Gal(b1-4)GlcNAc(b1-2)Man(a1-3)[Gal(b1-4)GlcNAc(b1-3)Gal(b1-4)GlcNAc(b1-2)Man(a1-6)]Man(b1-4)GlcNAc(b1-4)GlcNAc
Summary of the method: as §1

[6] = molecular target: Gal(b1-4)GlcNAc(b1-3)Gal(b1-4)GlcNAc(b1-2)Man(a1-3)[Gal(b1-4)GlcNAc(b1-3)Gal(b1-4)GlcNAc(b1-2)Man(a1-6)]Man(b1-4)GlcNAc(b1-4)[Fuc(a1-6)]GlcNAc
Summary of the method: as §1

[7] = molecular target: Gal(b1-4)GlcNAc(b1-3)Gal(b1-4)GlcNAc(b1-2)[Gal(b1-4)GlcNAc(b1-3)Gal(b1-4)GlcNAc(b1-6)]Man(a1-6)[Gal(b1-4)GlcNAc(b1-3)Gal(b1-4)GlcNAc(b1-2)Man(a1-3)]Man(b1-4)GlcNAc(b1-4)GlcNAc
Summary of the method: as §1

[8] = molecular target: Gal(b1-4)GlcNAc(b1-3)Gal(b1-4)GlcNAc(b1-2)[Gal(b1-4)GlcNAc(b1-3)Gal(b1-4)GlcNAc(b1-6)]Man(a1-6)[Gal(b1-4)GlcNAc(b1-3)Gal(b1-4)GlcNAc(b1-2)Man(a1-3)]Man(b1-4)GlcNAc(b1-4)[Fuc(a1-6)]GlcNAc
Summary of the method: as §1

[9] = molecular target: Gal(b1-4)GlcNAc(b1-3)Gal(b1-4)GlcNAc(b1-3)Gal(b1-4)GlcNAc
Summary of the method: as §1

[10] = molecular target: Gal(b1-4)GlcNAc(b1-3)Gal(b1-4)GlcNAc(b1-3)Gal(b1-4)GlcNAc(b1-2)Man(a1-3)[Gal(b1-4)GlcNAc(b1-3)Gal(b1-4)GlcNAc(b1-3)Gal(b1-4)GlcNAc(b1-2)Man(a1-6)]Man(b1-4)GlcNAc(b1-4)GlcNAc
Summary of the method: as §1

[11] = molecular target: Gal(b1-4)GlcNAc(b1-3)Gal(b1-4)GlcNAc(b1-3)Gal(b1-4)GlcNAc(b1-2)Man(a1-3)[Gal(b1-4)GlcNAc(b1-3)Gal(b1-4)GlcNAc(b1-3)Gal(b1-4)GlcNAc(b1-2)Man(a1-6)]Man(b1-4)GlcNAc(b1-4)[Fuc(a1-6)]GlcNAc
Summary of the method: as §1

[12] = molecular target: Gal(b1-4)GlcNAc(b1-3)Gal(b1-4)GlcNAc(b1-3)Gal(b1-4)GlcNAc(b1-2)[Gal(b1-4)GlcNAc(b1-3)Gal(b1-4)GlcNAc(b1-3)Gal(b1-4)GlcNAc(b1-6)]Man(a1-6)[Gal(b1-4)GlcNAc(b1-3)Gal(b1-4)GlcNAc(b1-3)Gal(b1-4)GlcNAc(b1-2)Man(a1-3)]Man(b1-4)GlcNAc(b1-4)[Fuc(a1-6)]GlcNAc
Summary of the method: as §1

[13] = molecular target: Gal(b1-4)GlcNAc(b1-3)Gal(b1-4)GlcNAc(b1-3)Gal(b1-4)GlcNAc(b1-3)Gal(b1-4)GlcNAc(b1-2)Man(a1-3)[Gal(b1-4)GlcNAc(b1-3)Gal(b1-4)GlcNAc(b1-3)Gal(b1-4)GlcNAc(b1-3)Gal(b1-4)GlcNAc(b1-2)Man(a1-6)]Man(b1-4)GlcNAc(b1-4)GlcNAc
Summary of the method: as §1

[14] = molecular target: Gal(b1-4)GlcNAc(b1-3)Gal(b1-4)GlcNAc(b1-3)Gal(b1-4)GlcNAc(b1-3)Gal(b1-4)GlcNAc(b1-2)Man(a1-3)[Gal(b1-4)GlcNAc(b1-3)Gal(b1-4)GlcNAc(b1-3)Gal(b1-4)GlcNAc(b1-3)Gal(b1-4)GlcNAc(b1-2)Man(a1-6)]Man(b1-4)GlcNAc(b1-4)[Fuc(a1-6)]GlcNAc
Summary of the method: as §1

[15] = molecular target: Gal(b1-4)GlcNAc(b1-3)Gal(b1-4)GlcNAc(b1-3)Gal(b1-4)GlcNAc(b1-3)Gal(b1-4)GlcNAc(b1-2)[Gal(b1-4)GlcNAc(b1-3)Gal(b1-4)GlcNAc(b1-3)Gal(b1-4)GlcNAc(b1-3)Gal(b1-4)GlcNAc(b1-6)]Man(a1-6)[Gal(b1-4)GlcNAc(b1-3)Gal(b1-4)GlcNAc(b1-3)Gal(b1-4)GlcNAc(b1-3)Gal(b1-4)GlcNAc(b1-2)Man(a1-3)]Man(b1-4)GlcNAc(b1-4)[Fuc(a1-6)]GlcNAc
Summary of the method: as §1

[16] = molecular target: Gal(b1-4)GlcNAc(b1-3)Gal(b1-4)GlcNAc(b1-3)Gal(b1-4)GlcNAc(b1-3)Gal(b1-4)GlcNAc(b1-3)Gal(b1-4)GlcNAc(b1-2)Man(a1-3)[Gal(b1-4)GlcNAc(b1-3)Gal(b1-4)GlcNAc(b1-3)Gal(b1-4)GlcNAc(b1-3)Gal(b1-4)GlcNAc(b1-3)Gal(b1-4)GlcNAc(b1-2)Man(a1-6)]Man(b1-4)GlcNAc(b1-4)GlcNAc
Summary of the method: as §1

[17] = molecular target: Gal(b1-4)GlcNAc(b1-3)Gal(b1-4)GlcNAc(b1-3)Gal(b1-4)GlcNAc(b1-3)Gal(b1-4)GlcNAc(b1-3)Gal(b1-4)GlcNAc(b1-2)Man(a1-3)[Gal(b1-4)GlcNAc(b1-3)Gal(b1-4)GlcNAc(b1-3)Gal(b1-4)GlcNAc(b1-3)Gal(b1-4)GlcNAc(b1-3)Gal(b1-4)GlcNAc(b1-2)Man(a1-6)]Man(b1-4)GlcNAc(b1-4)[Fuc(a1-6)]GlcNAc
Summary of the method: as §1

[18] = molecular target: Gal(b1-4)GlcNAc(b1-3)Gal(b1-4)GlcNAc(b1-3)Gal(b1-4)GlcNAc(b1-3)Gal(b1-4)GlcNAc(b1-3)Gal(b1-4)GlcNAc(b1-2)[Gal(b1-4)GlcNAc(b1-3)Gal(b1-4)GlcNAc(b1-3)Gal(b1-4)GlcNAc(b1-3)Gal(b1-4)GlcNAc(b1-3)Gal(b1-4)GlcNAc(b1-6)]Man(a1-6)[Gal(b1-4)GlcNAc(b1-3)Gal(b1-4)GlcNAc(b1-3)Gal(b1-4)GlcNAc(b1-3)Gal(b1-4)GlcNAc(b1-3)Gal(b1-4)GlcNAc(b1-2)Man(a1-3)]Man(b1-4)GlcNAc(b1-4)[Fuc(a1-6)]GlcNAc
Summary of the method: as §1

[19] = molecular target: Gal(b1-4)GlcNAc(b1-3)Gal(b1-4)GlcNAc(b1-3)Gal(b1-4)GlcNAc(b1-3)Gal(b1-4)GlcNAc(b1-3)Gal(b1-4)GlcNAc(b1-3)Gal(b1-4)GlcNAc(b1-2)Man(a1-3)[Gal(b1-4)GlcNAc(b1-3)Gal(b1-4)GlcNAc(b1-3)Gal(b1-4)GlcNAc(b1-3)Gal(b1-4)GlcNAc(b1-3)Gal(b1-4)GlcNAc(b1-3)Gal(b1-4)GlcNAc(b1-2)Man(a1-6)]Man(b1-4)GlcNAc(b1-4)GlcNAc
Summary of the method: as §1

[20] = molecular target: Gal(b1-4)GlcNAc(b1-3)Gal(b1-4)GlcNAc(b1-3)GalNAc
Summary of the method: as §1

[21] = molecular target: Gal(b1-4)GlcNAc(b1-3)Gal(b1-4)GlcNAc(b1-3)[Gal(b1-4)GlcNAc(b1-3)Gal(b1-4)GlcNAc(b1-6)]GalNAc
Summary of the method: as §1

[22] = molecular target: Gal(b1-4)GlcNAc(b1-3)Gal(b1-4)GlcNAc(b1-6)[Gal(b1-3)]GalNAc
Summary of the method: as §1

[23] = molecular target: Gal(b1-4)GlcNAc(b1-3)Gal(b1-4)[Fuc(a1-3)]GlcNAc(b1-3)Gal(b1-4)[Fuc(a1-3)]GlcNAc
Summary of the method: as §1

[24] = molecular target: Gal(b1-4)GlcNAc(b1-3)GalNAc
Summary of the method: as §1

[25] = molecular target: Gal(b1-4)GlcNAc(b1-3)[Fuc(a1-3)GlcNAc(b1-6)]Gal(b1-4)Glc
Summary of the method: as §1

[26] = molecular target: Gal(b1-4)GlcNAc(b1-3)[Gal(b1-4)GlcNAc(b1-6)]Gal(b1-4)GlcNAc
Summary of the method: as §1

[27] = molecular target: Gal(b1-4)GlcNAc(b1-3)[Gal(b1-4)GlcNAc(b1-6)]GalNAc
Summary of the method: as §1

[28] = molecular target: Gal(b1-4)GlcNAc(b1-3)[GlcNAc(b1-6)]Gal(b1-4)GlcNAc
Summary of the method: as §1

[29] = molecular target: Gal(b1-4)GlcNAc(b1-6)Gal(b1-4)GlcNAc
Summary of the method: as §1

[30] = molecular target: Gal(b1-4)GlcNAc(b1-6)Gal(b1-4)GlcNAc(b1-6)GalNAc
Summary of the method: as §1

[31] = molecular target: Gal(b1-4)GlcNAc(b1-6)GalNAc
Summary of the method: as §1

[32] = molecular target: Gal(b1-4)GlcNAc(b1-6)[Gal(b1-3)]GalNAc
Summary of the method: as §1

[33] = molecular target: Gal(b1-4)GlcNAc(b1-6)[Gal(b1-3)]GlcNAc
Summary of the method: as §1

[34] = molecular target: Gal(b1-4)GlcNAc(b1-6)[Gal(b1-4)GlcNAc(b1-3)]GalNAc
Summary of the method: as §1

Gal(b1-4)GlcNAc6P = molecular target: Gal(b1-4)GlcNAc6P
Summary of the method: as §1

Gal(b1-6)Gal = molecular target: Gal(b1-6)Gal
Summary of the method: as §1

Gal3S(b1-3)GalNAc = molecular target: Gal3S(b1-3)GalNAc
Summary of the method: as §1

Gal3S(b1-3)GlcNAc = molecular target: Gal3S(b1-3)GlcNAc
Summary of the method: as §1

[35] = molecular target: Gal3S(b1-3)[Fuc(a1-4)]GlcNAc
Summary of the method: as §1

Gal3S(b1-4)Glc = molecular target: Gal3S(b1-4)Glc
Summary of the method: as §1

Gal3S(b1-4)Glc6S = molecular target: Gal3S(b1-4)Glc6S
Summary of the method: as §1

Gal3S(b1-4)GlcNAc = molecular target: Gal3S(b1-4)GlcNAc
Summary of the method: as §1

Gal3S(b1-4)GlcNAc6S = molecular target: Gal3S(b1-4)GlcNAc6S
Summary of the method: as §1

[36] = molecular target: Gal3S(b1-4)[Fuc(a1-3)]Glc
Summary of the method: as §1

[37] = molecular target: Gal3S(b1-4)[Fuc(a1-3)]Glc6S
Summary of the method: as §1

B1: Gal 2 (Homo sapiens), P05162 (protein)
chain: MTGELEVKNMDMKPGSTLKITGSIADGTDGFVINLGQGTDKLNLHFNPRFSESTIVCNSLDGSNWGQEQREDHLCFSPGSEVKFTVTFESDKFKVKLPDGHELTFPNRLGHSHLSYLSVRGGFNMSSFKLKE
[1]
  glycan array binding signal (z-score): -0.268
[2]
  glycan array binding signal (z-score): -0.196
[3]
  glycan array binding signal (z-score): 0.142
[4]
  glycan array binding signal (z-score): 0.133
[5]
  glycan array binding signal (z-score): -0.04
[6]
  glycan array binding signal (z-score): -0.203
[7]
  glycan array binding signal (z-score): -0.042
[8]
  glycan array binding signal (z-score): -0.034
[9]
  glycan array binding signal (z-score): 0.097
[10]
  glycan array binding signal (z-score): -0.039
[11]
  glycan array binding signal (z-score): -0.075
[12]
  glycan array binding signal (z-score): -0.082
[13]
  glycan array binding signal (z-score): -0.177
[14]
  glycan array binding signal (z-score): 0.073
[15]
  glycan array binding signal (z-score): -0.172
[16]
  glycan array binding signal (z-score): -0.071
[17]
  glycan array binding signal (z-score): -0.248
[18]
  glycan array binding signal (z-score): 0.023
[19]
  glycan array binding signal (z-score): 0.056
[20]
  glycan array binding signal (z-score): -0.024
[21]
  glycan array binding signal (z-score): -0.215
[22]
  glycan array binding signal (z-score): -0.17
[23]
  glycan array binding signal (z-score): -0.024
[24]
  glycan array binding signal (z-score): 0.085
[25]
  glycan array binding signal (z-score): -0.047
[26]
  glycan array binding signal (z-score): 0.655
[27]
  glycan array binding signal (z-score): 1.05
[28]
  glycan array binding signal (z-score): 0.016
[29]
  glycan array binding signal (z-score): -0.191
[30]
  glycan array binding signal (z-score): 0.216
[31]
  glycan array binding signal (z-score): -0.135
[32]
  glycan array binding signal (z-score): -0.202
[33]
  glycan array binding signal (z-score): 0.507
[34]
  glycan array binding signal (z-score): 0.048
Gal(b1-4)GlcNAc6P
  glycan array binding signal (z-score): 0.002
Gal(b1-6)Gal
  glycan array binding signal (z-score): -0.229
Gal3S(b1-3)GalNAc
  glycan array binding signal (z-score): -0.228
Gal3S(b1-3)GlcNAc
  glycan array binding signal (z-score): 0.796
[35]
  glycan array binding signal (z-score): -0.247
Gal3S(b1-4)Glc
  glycan array binding signal (z-score): -0.192
Gal3S(b1-4)Glc6S
  glycan array binding signal (z-score): -0.109
Gal3S(b1-4)GlcNAc
  glycan array binding signal (z-score): 0.3
Gal3S(b1-4)GlcNAc6S
  glycan array binding signal (z-score): -0.039
[36]
  glycan array binding signal (z-score): -0.205
[37]
  glycan array binding signal (z-score): 0.897
